Reference: a collection of fitness landscapes (doi:10.1016/j.celrep.2020.107928)
Over roughly 81,000 sequences, “one-hybrid fitness for binding parS DNA” has its median near -0.17; the highest 2% begin near 0.51. This is one part of the list.

B1: Caulobacter ParB omega fusion; a variant is named by its letters at X, in order, B8GW30 (parent)
chain: MESVVVGEPGMSEGRRGLGRGLSALLGEVDAAPAQAPGEQLGGSREAPIEILQRNPDQPRRTFREEDLEDLSNSIREKGVLQPILVRPSPDTAGEYQIVAGERAWRAAQRAGLKTVPIMVRELDDLAVLEIGIIENVQRADLNVLEEALSYKVLMEKFERTQENIAQTIGKSXSHVANXMRLLXLPDEVQSYLVSGELTAXHARAIAAAADPVALAKQIIEGGLSVRETEALARKAPNLSAGKSKGGRPPRVKDTDTQALESDLSSVLGLDVSIDHRGSTGTLTITYATLEQLDDLCNRLTRGI

Variants of: B1
Assay: one-hybrid fitness for binding parS DNA (scaled: cognate 1, non-cognate 0); higher = stronger binding
Conditions: with parS DNA site
How it was run: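 Caulobacter ParB libraries with four specificity codons randomised were screened by bacterial one-hybrid selection in the E. coli USO strain, using a HIS3 reporter whose site lies 19 bp from the promoter. Selection ran for 48 hours at 37°C on M9 lacking histidine, with 0.1 mM IPTG and 5 mM 3-AT. Plasmids were Illumina-sequenced before and after selection, three replicate libraries were pooled, and variants with under 10 reads were dropped. Fitness is the log change in each variant's read ratio to wild type, rescaled against the cognate and non-cognate sites.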

Row | Variant | one-hybrid fitness for binding parS DNA
1 | DADV | ≤ 0.2
2 | IHRG | ≤ 0.2
3 | KQST | ≤ 0.2
4 | DEWG | ≤ 0.2
5 | TCSW | ≤ 0.2
6 | RCSA | 0.575
7 | ENKR | ≤ 0.2
8 | CHKG | ≤ 0.2
9 | LARE | ≤ 0.2
10 | HRRD | ≤ 0.2
11 | GRPG | ≤ 0.2
12 | HQDT | ≤ 0.2
13 | KKLT | ≤ 0.2
14 | RDDW | ≤ 0.2
15 | MLAS | ≤ 0.2
16 | NYLC | ≤ 0.2
17 | GESC | ≤ 0.2
18 | ARFS | ≤ 0.2
19 | HWTS | ≤ 0.2
20 | CHLA | ≤ 0.2
21 | DCLF | ≤ 0.2
22 | NYIC | ≤ 0.2
23 | QARW | ≤ 0.2
24 | QHTK | ≤ 0.2
25 | ARDR | ≤ 0.2

Row | Variant | one-hybrid fitness for binding parS DNA
26 | NHSL | ≤ 0.2
27 | MCLS | ≤ 0.2
28 | PKKT | ≤ 0.2
29 | YLLT | ≤ 0.2
30 | GYTA | ≤ 0.2
31 | LKSI | ≤ 0.2
32 | TQIS | ≤ 0.2
33 | GLGA | ≤ 0.2
34 | SHTE | ≤ 0.2
35 | AVAS | ≤ 0.2
36 | LEVG | ≤ 0.2
37 | KNVG | ≤ 0.2
38 | VLKT | ≤ 0.2
39 | TVQC | ≤ 0.2
40 | VLTR | ≤ 0.2
41 | ILTC | ≤ 0.2
42 | GSKW | ≤ 0.2
43 | TCTS | ≤ 0.2
44 | DYHC | ≤ 0.2
45 | RGDC | 0.467
46 | APSA | ≤ 0.2
47 | NPFG | ≤ 0.2
48 | QWSH | ≤ 0.2
49 | ILYK | ≤ 0.2
50 | RQMY | 0.474

Row | Variant | one-hybrid fitness for binding parS DNA
51 | TPIP | ≤ 0.2
52 | RTNW | 0.287
53 | NSMT | ≤ 0.2
54 | IYSI | ≤ 0.2
55 | TRPK | ≤ 0.2
56 | ARQS | ≤ 0.2
57 | QTYY | ≤ 0.2
58 | KPHL | ≤ 0.2
59 | ASNE | ≤ 0.2
60 | TWRR | ≤ 0.2
61 | QGHY | ≤ 0.2
62 | SHKE | ≤ 0.2
63 | VSCG | ≤ 0.2
64 | EAVS | ≤ 0.2
65 | KHYR | ≤ 0.2
66 | YTLW | ≤ 0.2
67 | KLHA | ≤ 0.2
68 | EAKV | ≤ 0.2
69 | GSFV | ≤ 0.2
70 | ISVG | ≤ 0.2
71 | MMAC | 0.206
72 | ADPH | ≤ 0.2
73 | HQES | ≤ 0.2
74 | NQRM | ≤ 0.2
75 | QHSA | ≤ 0.2

Row | Variant | one-hybrid fitness for binding parS DNA
76 | ETPL | ≤ 0.2
77 | STYI | ≤ 0.2
78 | RTVQ | ≤ 0.2
79 | PPHL | ≤ 0.2
80 | GYHN | ≤ 0.2
81 | ARHF | ≤ 0.2
82 | RCGE | ≤ 0.2
83 | AFTC | ≤ 0.2
84 | IRSS | ≤ 0.2
85 | QHAW | ≤ 0.2
86 | KQRG | ≤ 0.2
87 | WWAM | ≤ 0.2
88 | QMRQ | ≤ 0.2
89 | QAIT | ≤ 0.2
90 | AWYW | ≤ 0.2
91 | FRVG | ≤ 0.2
92 | VNDV | ≤ 0.2
93 | AVSV | ≤ 0.2
94 | KSSR | ≤ 0.2
95 | KNQK | ≤ 0.2
96 | KKYC | ≤ 0.2
97 | CRTA | ≤ 0.2
98 | RLTI | ≤ 0.2
99 | TSIL | ≤ 0.2
100 | VHVV | 0.244

Row | Variant | one-hybrid fitness for binding parS DNA
101 | KERD | ≤ 0.2
102 | TYNG | ≤ 0.2
103 | HCLG | ≤ 0.2
104 | HCWS | ≤ 0.2
105 | PYPG | ≤ 0.2
106 | MTFG | ≤ 0.2
107 | AVWS | ≤ 0.2
108 | WRQV | ≤ 0.2
109 | HWTG | ≤ 0.2
110 | PIYE | ≤ 0.2
111 | KAST | ≤ 0.2
112 | CDTS | ≤ 0.2
113 | AKVN | ≤ 0.2
114 | CMLE | ≤ 0.2
115 | VPWR | ≤ 0.2
116 | NQSV | ≤ 0.2
117 | HTGS | ≤ 0.2
118 | DTSE | ≤ 0.2
119 | LELN | ≤ 0.2
120 | HYIR | ≤ 0.2
121 | AHEK | ≤ 0.2
122 | NDKD | ≤ 0.2
123 | HSLL | ≤ 0.2
124 | VPRN | ≤ 0.2
125 | ECSN | ≤ 0.2

Row | Variant | one-hybrid fitness for binding parS DNA
126 | TAWC | ≤ 0.2
127 | CQKA | ≤ 0.2
128 | IACF | ≤ 0.2
129 | QMTP | ≤ 0.2
130 | GMFL | ≤ 0.2
131 | GFDC | ≤ 0.2
132 | QREM | ≤ 0.2
133 | SSTV | ≤ 0.2
134 | APMC | ≤ 0.2
135 | CLGY | ≤ 0.2
136 | HTHW | ≤ 0.2
137 | DARN | ≤ 0.2
138 | EPYW | ≤ 0.2
139 | PNWV | ≤ 0.2
140 | RENS | 0.415
141 | LQMC | ≤ 0.2
142 | CRMS | ≤ 0.2
143 | PCTS | ≤ 0.2
144 | KRGI | ≤ 0.2
145 | RISH | 0.259
146 | GRPR | ≤ 0.2
147 | SEVA | 0.262
148 | PLSF | ≤ 0.2
149 | QSGL | ≤ 0.2
150 | WTQR | ≤ 0.2

Row | Variant | one-hybrid fitness for binding parS DNA
151 | YRVC | ≤ 0.2
152 | QTKA | ≤ 0.2
153 | HCMW | ≤ 0.2
154 | KFPD | ≤ 0.2
155 | HGTA | ≤ 0.2
156 | DEPC | ≤ 0.2
157 | TPKI | ≤ 0.2
158 | LLCP | ≤ 0.2
159 | RAYP | ≤ 0.2
160 | PCRA | ≤ 0.2
161 | GIVR | ≤ 0.2
162 | AQVV | ≤ 0.2
163 | SGMS | ≤ 0.2
164 | PCRL | ≤ 0.2
165 | MSEH | ≤ 0.2
166 | TTRR | ≤ 0.2
167 | FYFS | ≤ 0.2
168 | PEDM | ≤ 0.2
169 | GCQA | ≤ 0.2
170 | ISVS | ≤ 0.2
171 | GKQR | ≤ 0.2
172 | TFLQ | ≤ 0.2
173 | ATVI | ≤ 0.2
174 | EPVV | ≤ 0.2
175 | RCTA | 0.609

Row | Variant | one-hybrid fitness for binding parS DNA
176 | AGRN | ≤ 0.2
177 | QTVL | ≤ 0.2
178 | KRWT | ≤ 0.2
179 | YNAE | ≤ 0.2
180 | FFRS | ≤ 0.2
181 | VYMY | ≤ 0.2
182 | PAAC | ≤ 0.2
183 | RVWN | 0.478
184 | RTCT | 0.917
185 | VVCG | ≤ 0.2
186 | GVSK | ≤ 0.2
187 | SLYI | ≤ 0.2
188 | EPHC | ≤ 0.2
189 | AVSD | ≤ 0.2
190 | YVLG | ≤ 0.2
191 | RYRE | ≤ 0.2
192 | QTRP | ≤ 0.2
193 | QGHF | ≤ 0.2
194 | DTYY | ≤ 0.2
195 | RNWE | ≤ 0.2
